Test results reported in paper PMC4336329 (PLoS ONE, 2015).
Screen size: about 310,000 compounds; about 2,200 (0.71%) showed an effect of 50% or more. The effect is printed as a negative number. The list shows a part of the results. Where a SMILES comes first, the peptide text is derived from it. The star is where a group is joined. Boc = CC(C)(C)OC(=O)*; Bn = c1ccc(C*)cc1

What follows are molecules tested against human ether-à-go-go-related gene (hERG) potassium channel (human, UniProt Q12809) (assay: primary screen, population patch clamp on CHO cells stably expressing hERG).
Chain of human ether-à-go-go-related gene (hERG) potassium channel (Q12809 whole entry, looked up): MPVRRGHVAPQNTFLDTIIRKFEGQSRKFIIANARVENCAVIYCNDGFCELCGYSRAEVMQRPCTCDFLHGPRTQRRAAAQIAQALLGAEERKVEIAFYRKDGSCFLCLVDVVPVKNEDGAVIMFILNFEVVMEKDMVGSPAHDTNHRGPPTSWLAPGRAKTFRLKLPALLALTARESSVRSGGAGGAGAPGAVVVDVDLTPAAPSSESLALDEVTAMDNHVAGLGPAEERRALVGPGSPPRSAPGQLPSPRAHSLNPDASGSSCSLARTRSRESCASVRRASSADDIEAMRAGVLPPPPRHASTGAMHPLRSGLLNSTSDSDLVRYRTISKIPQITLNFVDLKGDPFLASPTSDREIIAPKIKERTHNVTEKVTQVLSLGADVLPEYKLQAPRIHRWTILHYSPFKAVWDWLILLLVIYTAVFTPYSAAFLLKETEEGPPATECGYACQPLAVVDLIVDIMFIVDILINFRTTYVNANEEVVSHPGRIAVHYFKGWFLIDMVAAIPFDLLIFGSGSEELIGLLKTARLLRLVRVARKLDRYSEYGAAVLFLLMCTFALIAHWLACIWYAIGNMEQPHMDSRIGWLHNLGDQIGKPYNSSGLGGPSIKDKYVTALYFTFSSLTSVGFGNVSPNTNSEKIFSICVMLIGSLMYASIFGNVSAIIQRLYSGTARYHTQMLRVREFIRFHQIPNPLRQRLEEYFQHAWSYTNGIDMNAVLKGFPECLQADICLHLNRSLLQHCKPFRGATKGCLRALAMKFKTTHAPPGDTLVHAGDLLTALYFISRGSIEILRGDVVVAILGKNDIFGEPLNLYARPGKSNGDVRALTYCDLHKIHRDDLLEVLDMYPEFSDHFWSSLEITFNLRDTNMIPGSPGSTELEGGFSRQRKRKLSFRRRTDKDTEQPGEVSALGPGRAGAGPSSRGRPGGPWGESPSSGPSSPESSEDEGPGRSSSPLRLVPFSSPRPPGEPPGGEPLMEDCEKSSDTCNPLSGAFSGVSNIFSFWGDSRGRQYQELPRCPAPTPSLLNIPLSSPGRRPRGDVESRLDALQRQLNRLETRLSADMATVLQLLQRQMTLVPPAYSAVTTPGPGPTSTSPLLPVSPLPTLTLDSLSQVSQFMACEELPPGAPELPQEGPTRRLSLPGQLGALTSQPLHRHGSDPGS

SMILES	hERG current change (%, negative = inhibition) at 1uM [%]
CN(C(=S)NC(=O)C1(C)CC1(Cl)Cl)c1ccccc1 (stereo not shown)	18.3
CCOC(=O)c1ccc(NC(=O)c2nc[nH]c2C(=O)N[C@@H](Cc2ccccc2)C(=O)OC(C)(C)C)cc1	1
COc1ccc(C(=O)OC(C(=O)c2ccc(C)cc2)c2ccccc2)cc1 (stereo not shown)	3.56
CCN(CC)CCCNC(=O)c1ccc(CS(=O)(=O)c2ccccc2OC)o1	11.8
COc1ccccc1NC(=O)N(CCCN1CCOCC1)Cc1cc2cc3c(cc2[nH]c1=O)OCO3	8.24
COc1cc(/C=C/C(=O)c2ccc(NS(=O)(=O)c3ccc(C)cc3)cc2)cc(OC)c1O	4.86
Cc1ccc2c(c1)COc1c3ccc(C(=O)NC(C)C)cc3nn1-2	11.1
O=C(Nc1ccc(Nc2ccccc2)cc1)c1cc([N+](=O)[O-])ccc1Cl	9.98
Cc1cc(NS(=O)(=O)c2ccc(NS(=O)(=O)c3cc(C)c(Cl)cc3Cl)cc2)no1	12.3
O=C(O)C1C2C=CC3(CN(C/C=C/c4ccccc4)C(=O)C13)O2 (stereo not shown)	13.3
Cc1nn(C)c(C)c1S(=O)(=O)NCCc1ccc(Cl)cc1	8.73
CC/C(=N/N=C(/CC)c1ccc(O)cc1)c1ccc(O)cc1	4.16
CC(=O)N1CCOc2ccc(S(=O)(=O)N3CCC(C(=O)NCc4ccc(F)cc4)CC3)cc21	10
Cc1ccc(-n2c(=O)c(C#N)cc3c(=O)n4ccccc4nc32)cc1C	9.23
CC1CCN(S(=O)(=O)c2ccc3ccccc3c2)CC1	23.5
CC(=O)Nc1c(C(=O)c2ccc(F)cc2)oc2ccccc12	3.94
CCCCOCCCNC(=O)N[C@H](C(=O)OC)C(C)C	11.1
CCc1ccccc1N=C1SCC(=O)N1C	8.54
COc1ccc(NC(=S)Nn2cnnc2)cc1OC	9.82
CC(Sc1ccc(S(=O)(=O)N2CCOCC2)cn1)C(=O)Nc1ccc(Cl)cc1Cl (stereo not shown)	-29.3
Cc1onc(-c2ccccc2)c1C(=O)Nc1ccnn1C1CCCCC1	-3.97
CC(=O)c1nc2ccccc2n1Cc1ccccc1	9.31

SMILES	hERG current change (%, negative = inhibition) at 1uM [%]
CC(=O)Oc1ccc(/C=C2/CCc3ccccc3C2=O)cc1	11.9
CCC(=O)Nc1cccc(C2=NOC3(C2)C[C@@H](C(N)=O)N(C(=O)CC)C3)c1 (stereo partly shown)	13
O=C(CSc1nnnn1-c1ccccc1)Nc1ccc(N2CCOCC2)cc1	-3.69
Cc1cc(=O)n2nc(N3CCCC(C(=O)N4CCN(c5ccccc5)CC4)C3)sc2n1 (stereo not shown)	-21.7
CCCCC12CN3CC(C)(CN(C1)C31C(=O)N(C)c3ccc(C)cc31)C2=O (stereo not shown)	-5.21
COc1ccccc1N1CCN(S(=O)(=O)c2ccc(-c3cnc(C4CC4)o3)cc2)CC1	14
O=C(NCCN1CCOCC1)N1c2ccccc2Sc2ccccc21	13.7
CCOc1cccc(C(=O)Nc2cccc(NC(=O)c3ccco3)c2)c1	0.329
Cl.c1coc(CNc2nc(N3CCCCC3)nc3ccccc23)c1	-80.8
COc1nc(-c2ccccc2)ccc1-c1noc(-c2cccnc2)n1	10.7
CCCN1C(=O)c2ccc(C(=O)Nc3nccs3)cc2C1=O	-1.84
COc1cc(CCC(=O)OCC(=O)Nc2nc(C)c(Cl)cc2Cl)cc(OC)c1OC	7.43
Brc1ccc(CN2CCCCCC2)cc1	-1.78
CCC(C)c1ccccc1N1CC(C(=O)Nc2ccc(S(=O)(=O)N3CCOCC3)cc2)CC1=O (stereo not shown)	2.8
O=C(NNC(=O)c1ccc(Br)s1)c1csc(N2CCOCC2)n1	14
CCOC(=O)N1CCC(=NNC(=O)NC2CCCCC2)CC1	10.6
COC(=O)C1=C(C)N(C)C(C)=C(C(=O)OC)C1c1ccc(F)c(Br)c1	6.36
O=C(/C(=C/O)N=Nc1ccccc1Cl)c1ccccc1	18.7
COc1ccc(Cl)cc1Nc1nc(NCCO)nc(N2CCCC2)n1	10.3
Cc1ccc(Cl)c2c1NC(=O)C2(O)CC(=O)c1ccc(Br)cc1 (stereo not shown)	6.68
COc1ccc(-c2noc(Cc3ccccc3OC)n2)cc1	21
CCCc1nnc(NC(=O)CCN2C(=O)c3ccccc3C2=O)s1	13.1

SMILES	hERG current change (%, negative = inhibition) at 1uM [%]
CCNS(=O)(=O)c1ccc(CCC(=O)N2CCc3ccccc3C2)cc1	3.99
N#CCN1CCN(CC(=O)c2ccc(Br)cc2)CC1	17.7
CCC(=O)NC(=S)Nc1ccccc1F	16.1
CCc1ccc(OCCSc2nc3ccccc3n2CC(=O)O)cc1	7.3
Cc1cccc(C)c1N1CCN(c2nc(N(C)C)oc(=O)c2C#N)CC1	-2.69
COc1cc(OC)cc(C(=O)NNC(=S)Nc2ccc(S(N)(=O)=O)cc2)c1	11.5
CCN(CC)CCNc1nc2nonc2nc1NCCN(CC)CC	11.9
Cl.O=C(CN1CCCC1)NC1C2CC3CC(C2)CC1C3 (stereo not shown)	-7.88
CCOCC(=O)Nc1cc(C(=O)OC)cc(C(=O)OC)c1	10.2
COc1cccc(NC(=O)COc2ccc(C(=S)N3CCN(C)CC3)cc2OC)c1	6.94
CCOc1ccc(NC(N)=O)cc1OCC	7.76
O=C(CCn1cnc2ccccc21)N=Nc1c(O)[nH]c2ccccc12	6.64
Cc1cc2c3c(c1C)C1(C(=O)N3C(C)(C)CC2C)C(C#N)=C(N)Oc2cc(O)ccc21 (stereo not shown)	9.72
CC(C)CC(NC(=O)C(Cc1ccc(OCc2ccccc2)cc1)NC(=O)OC(C)(C)C)C(N)=O (stereo not shown) (Boc-Tyr(Bn)-Leu-NH2; configuration not given here)	14.4
Cc1ccc(NC(=O)c2ccc3c(c2)CCN3S(C)(=O)=O)cc1C	1.9
COC(=O)c1c(NC(=O)c2ccccc2)sc(C(=O)c2ccccc2)c1C	1.18
Cc1nc(CC(=O)O)c(-c2ccccc2)s1	16.5
Cc1ccc(OCCN2CCN(CC(O)Cn3c4ccccc4c4ccccc43)CC2)cc1.O=C(O)C(=O)O (stereo not shown)	12.2
CN(C(=O)c1cccc(C(F)(F)F)c1)C1CCCc2ccccc21 (stereo not shown)	10.6
COc1ccccc1CC(=O)NCCCc1ccccc1	11.2
CN1C(=O)C(O)(CC(=O)c2ccccn2)c2cc(Br)ccc21 (stereo not shown)	5.78
Cc1nnc2ccc(-c3ccc(NS(=O)(=O)c4ccccc4[N+](=O)[O-])cc3)nn12	9.77

SMILES	hERG current change (%, negative = inhibition) at 1uM [%]
Cc1cccc(C)c1-n1nnnc1C(C)(C)N1CCN(N=O)CC1	16.8
COc1ccc(-n2c(SCC(=O)Nc3ccccc3OC)nc(O)cc2=O)cc1	16.4
CCN(CC)C(=O)COc1ccc2c3c(c(=O)oc2c1C)CCCC3	13.1
CSCC[C@H](NC(=O)[C@@H]1Cc2ccccc2CN1)C(=O)Nc1ccc2c(c1)OCCO2	-5.17
CCOC(=O)CN1C(=O)C(Sc2n[nH]c(-c3ccccc3)n2)CCc2ccccc21 (stereo not shown)	-4.36
C#CCOCCOCCOCCNc1nc(N2CCN(C(=O)[C@H]([C@@H](C)CC)n3cc(CCCC[NH3+])nn3)CC2)nc(N2CCN(C(=O)[C@H](CCCC[NH3+])n3cc(CCCC)nn3)CC2)n1.[Cl-]	10.7
O=S(=O)(c1cnc[nH]1)N1CCN(c2ccccc2)CC1	13
O=C(OCc1ccccc1)/C(=C/c1ccccc1Cl)NC(=O)c1ccco1	5.64
Cc1onc(-c2ccccc2)c1CNC(=O)Nc1ccc(F)cc1F	9.12
COc1ccc(C2(c3ccc(OC)cc3)NC(=O)N(Cn3nnc4ccccc4c3=O)C2=O)cc1	-1.38
CC(=O)c1cccc(NC(=O)c2sc3nc4n(c(=O)c3c2C)CCCC4)c1	8.51
CCOC(=O)C1=C(N)OC2=C(C(=O)CC(C)(C)C2)C1c1cc(CSc2nnnn2C)cs1 (stereo not shown)	-14.2
COc1cccc2sc(N(CCN(C)C)C(=O)c3ccc4c(c3)CCCC4)nc12.Cl	2.16
CN(c1ccc(OCC(=O)O)cc1)S(=O)(=O)c1ccc2ccccc2c1	14.1
COCCNC(=O)CSc1nc2cc3c(cc2c(=O)n1CCCC(=O)NCc1ccc(OC)cc1)OCO3	18.7
CN1C(=O)c2cccc(NCCCN3C(=O)c4ccccc4C3=O)c2C1=O	12
CCOC(=O)CC1(C)OCC(C[N+]2(C)CCCCC2)O1.[I-] (stereo not shown)	8.19
O=C(COC(=O)c1ccc(O)cc1)NCCC1=CCCCC1	7.77
CCn1cc(C(=O)O)c(=O)c2cc(F)c(N3CCN(S(=O)(=O)c4ccc(NC(=O)OC)cc4)CC3)cc21	14.4
